{"source": "the GPR68 mutational scans of Howard et al. (2025)", "parents": {"B1": {"name": "GPR68, Q15743 (parent)", "chain": "MGNITADNSSMSCTIDHTIHQTLAPVVYVTVLVVGFPANCLSLYFGYLQIKARNELGVYLCNLTVADLFYICSLPFWLQYVLQHDNWSHGDLSCQVCGILLYENIYISVGFLCCISVDRYLAVAHPFRFHQFRTLKAAVGVSVVIWAKELLTSIYFLMHEEVIEDENQHRVCFEHYPIQAWQRAINYYRFLVGFLFPICLLLASYQGILRAVRRSHGTQKSRKDQIQRLVLSTVVIFLACFLPYHVLLLVRSVWEASCDFAKGVFNAYHFSLLLTSFNCVADPVLYCFVSETTHRDLARLRGACLAFLTCSRTGRAREAYPLGAPEASGKSGAQGEEPELLTKLHPAFQTPNSPGSGGFPTGRLA"}}, "key": {"[1]": {"variants_of": "B1", "experiment": "cAMP reporter score (Enrich2 score, wild type = 0); higher = more signal; HEK293T, FACS bins"}, "[2]": {"variants_of": "B1", "experiment": "surface expression score (Enrich2 score, wild type = 0); higher = more signal; HEK293T, FACS bins"}}, "note": "The least precise scores are not listed. Not listed are two conditions whose scores span a narrow range. Read del as a deletion of the residues named and ins as an insertion between two positions. For some of these results: The data file names ogerin without a concentration."}
{"variant": "MGNITADNSSMSCTIDHTIHQTLAPVVYVTVLVVGFPANCLSLYFFYLQIKARNELGVYLCNLTVADLFYICSLPFWLQYVLQHDNWSHGDLSCQVCGILLYENIYISVGFLCCISVDRYLAVAHPFRFHQFRTLKAAVGVSVVIWAKELLTSIYFLMHEEVIEDENQHRVCFEHYPIQAWQRAINYYRFLVGFLFPICLLLASYQGILRAVRRSHGTQKSRKDQIQRLVLSTVVIFLACFLPYHVLLLVRSVWEASCDFAKGVFNAYHFSLLLTSFNCVADPVLYCFVSETTHRDLARLRGACLAFLTCSRTGRAREAYPLGAPEASGKSGAQGEEPELLTKLHPAFQTPNSPGSGGFPTGRLA", "note": "[G46F]", "values": [{"measurement": "cAMP reporter score", "setting": "[1]; pH 5.5", "result": -1.04}, {"measurement": "cAMP reporter score", "setting": "[1]; pH 6", "result": -0.47}, {"measurement": "cAMP reporter score", "setting": "[1]; pH 6, modulator: ogerin", "result": -1.67}, {"measurement": "cAMP reporter score", "setting": "[1]; pH 6.5, modulator: ogerin", "result": -0.511}, {"measurement": "surface expression score", "setting": "[2]", "result": -2.24}]}
{"variant": "MGNITADNSSMSCTIDHTIHQTLAPVVYVTVLVVGFPANCLSLYFEYLQIKARNELGVYLCNLTVADLFYICSLPFWLQYVLQHDNWSHGDLSCQVCGILLYENIYISVGFLCCISVDRYLAVAHPFRFHQFRTLKAAVGVSVVIWAKELLTSIYFLMHEEVIEDENQHRVCFEHYPIQAWQRAINYYRFLVGFLFPICLLLASYQGILRAVRRSHGTQKSRKDQIQRLVLSTVVIFLACFLPYHVLLLVRSVWEASCDFAKGVFNAYHFSLLLTSFNCVADPVLYCFVSETTHRDLARLRGACLAFLTCSRTGRAREAYPLGAPEASGKSGAQGEEPELLTKLHPAFQTPNSPGSGGFPTGRLA", "note": "[G46E]", "values": [{"measurement": "cAMP reporter score", "setting": "[1]; pH 5.5", "result": -1.41}, {"measurement": "cAMP reporter score", "setting": "[1]; pH 6", "result": -1.04}, {"measurement": "cAMP reporter score", "setting": "[1]; pH 6, modulator: ogerin", "result": -0.975}, {"measurement": "cAMP reporter score", "setting": "[1]; pH 6.5, modulator: ogerin", "result": -1.05}, {"measurement": "surface expression score", "setting": "[2]", "result": -2.85}]}
{"variant": "MGNITADNSSMSCTIDHTIHQTLAPVVYVTVLVVGFPANCLSLYFIYLQIKARNELGVYLCNLTVADLFYICSLPFWLQYVLQHDNWSHGDLSCQVCGILLYENIYISVGFLCCISVDRYLAVAHPFRFHQFRTLKAAVGVSVVIWAKELLTSIYFLMHEEVIEDENQHRVCFEHYPIQAWQRAINYYRFLVGFLFPICLLLASYQGILRAVRRSHGTQKSRKDQIQRLVLSTVVIFLACFLPYHVLLLVRSVWEASCDFAKGVFNAYHFSLLLTSFNCVADPVLYCFVSETTHRDLARLRGACLAFLTCSRTGRAREAYPLGAPEASGKSGAQGEEPELLTKLHPAFQTPNSPGSGGFPTGRLA", "note": "[G46I]", "values": [{"measurement": "cAMP reporter score", "setting": "[1]; pH 5.5", "result": -0.085}, {"measurement": "cAMP reporter score", "setting": "[1]; pH 6", "result": -0.806}, {"measurement": "cAMP reporter score", "setting": "[1]; pH 6, modulator: ogerin", "result": -1.82}, {"measurement": "cAMP reporter score", "setting": "[1]; pH 6.5, modulator: ogerin", "result": -0.72}, {"measurement": "surface expression score", "setting": "[2]", "result": -1.69}]}
{"variant": "MGNITADNSSMSCTIDHTIHQTLAPVVYVTVLVVGFPANCLSLYFHYLQIKARNELGVYLCNLTVADLFYICSLPFWLQYVLQHDNWSHGDLSCQVCGILLYENIYISVGFLCCISVDRYLAVAHPFRFHQFRTLKAAVGVSVVIWAKELLTSIYFLMHEEVIEDENQHRVCFEHYPIQAWQRAINYYRFLVGFLFPICLLLASYQGILRAVRRSHGTQKSRKDQIQRLVLSTVVIFLACFLPYHVLLLVRSVWEASCDFAKGVFNAYHFSLLLTSFNCVADPVLYCFVSETTHRDLARLRGACLAFLTCSRTGRAREAYPLGAPEASGKSGAQGEEPELLTKLHPAFQTPNSPGSGGFPTGRLA", "note": "[G46H]", "values": [{"measurement": "cAMP reporter score", "setting": "[1]; pH 5.5", "result": 0.209}, {"measurement": "cAMP reporter score", "setting": "[1]; pH 6", "result": 4.2}, {"measurement": "cAMP reporter score", "setting": "[1]; pH 6, modulator: ogerin", "result": 1.23}, {"measurement": "surface expression score", "setting": "[2]", "result": -2.39}]}
